# Values joined by “and” are separate entries in the source; they are usually repeats but may differ in a detail not shown here. Equal values may be shown once. The shares of active, inactive and inconclusive entries below differ from those in the screen. Potencies of inconclusive entries are doubtful fits and often do not repeat. Active and inactive are the calls of the source. The call rests on the fitted dose curve; in most records, active means well fitted curve in the direction sought with a large enough effect; inconclusive means small, poorly fitted or top-dose-only effect, or another doubt; inactive means no such curve, though single readings can be large; an effect the other way counts as inactive or inconclusive.
# What was measured:
# [1] = Primary qHTS for inhibitors of nuclear receptor binding SET domain protein 2 (NSD2) in an isogenic RCH-ACV NSD2 p.E1099K mutant (9B) (AID 1645876); further: nearly all actives have a fitted effect of over 70% in size
# [2] = Primary qHTS for inhibitors of nuclear receptor binding SET domain protein 2 (NSD2) in an RCH-ACV wild type WT cells (2C) (AID 1645877); details: activity change, negative = cell killing: at 44.9 µM (top of the series); further: nearly all actives have a fitted effect of over 70% in size
# CRL-7250 = normal cell line; test: Cytotoxic Profiling of Annotated Libraries Using Quantitative High-Throughput Screening (AID 1296008); details: Five cell lines viability, CellTiter-Glo ATP luminescence, 48-72 h; max response: stronger effect = lower value; further: nearly all actives have a fitted effect of over 60% in size; on max response: on the % scale 0 is the no-effect control and ±100 the full control effect
# How it was run: (§1)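 Cytotoxicity was measured as CellTiter-Glo ATP luminescence, read after 10 min at room temperature. Compound treatment of the cells lasted 48 or 72 hr at 37 degrees Celsius in a qHTS format.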
# HEK293 = test: as above; details: Five cell lines viability, CellTiter-Glo ATP luminescence, 48-72 h; max response: stronger effect = lower value
# How it was run: as §1
# HaCat = test: as above; details: Five cell lines viability, CellTiter-Glo ATP luminescence, 48-72 h; max response: stronger effect = lower value
# How it was run: as §1
# [3] = Primary fluorescence-based thiol-reactive (MSTI) qHTS assay for identification of artifact compounds. (AID 1845221);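 further: thiol-reactive compounds lower the probe fluorescence signal; nearly all actives have a fitted effect of over 65% in size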
# How it was run: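 Compounds were incubated 1 h at room temperature in the dark with the MSTI probe (4 uM) in PBS pH 7.4, 2% DMSO. Signals were normalized between Acetyl-MSTI and MSTI.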
# Hek293T = test: Primary qHTS to identify gynecologic anti-cancer compounds using libraries of approved drugs and bioactive compounds (AID 1345084); details: Gynecologic cancer cell panel viability, ATPlite luminescence, 48 h, control line for the selectivity index; series mostly up to 57.5 µM; further: nearly all actives have a fitted effect of over 55% in size; on activity change, negative = cytotoxicity: on the % scale 0 is the no-effect control and ±100 the full control effect
# How it was run: (§2)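 Luminescence from the ATPlite ATP-monitoring reagent indicates viable cell number; lower signal means cytotoxicity. Cells received compound 16 h after seeding and were exposed for 48 h across five concentrations.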
# OV90 = test: as above; details: Gynecologic cancer cell panel viability, ATPlite luminescence, 48 h; series mostly up to 57.5 µM
# How it was run: as §2
# SKOV3 = test: as above; details: Gynecologic cancer cell panel viability, ATPlite luminescence, 48 h; series mostly up to 57.5 µM
# How it was run: as §2
# [4] = P-glycoprotein substrates identified in KB-8-5-11 adenocarcinoma cell line, qHTS therapeutic library screen (AID 1346987); further: nearly all actives have a fitted effect of over 65% in size
# How it was run: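 In this qHTS, P-gp-rich KB-8-5-11 cells received library compounds across a concentration range. Viability was quantified by luminescence after 72 h at 37 degree C.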
# KB-3-1 = test: Cytotoxic Profiling of Annotated Libraries Using Quantitative High-Throughput Screening (AID 1296008); details: Five cell lines viability, CellTiter-Glo ATP luminescence, 48-72 h; max response: stronger effect = lower value; further: nearly all actives have a fitted effect of over 60% in size; on max response: on the % scale 0 is the no-effect control and ±100 the full control effect
# How it was run: as §1
# NIH3T3 = test: as above; details: Five cell lines viability, CellTiter-Glo ATP luminescence, 48-72 h; max response: stronger effect = lower value
# How it was run: as §1
# C33A = test: Primary qHTS to identify gynecologic anti-cancer compounds using libraries of approved drugs and bioactive compounds (AID 1345084); details: Gynecologic cancer cell panel viability, ATPlite luminescence, 48 h; series mostly up to 57.5 µM; further: nearly all actives have a fitted effect of over 55% in size; on activity change, negative = cytotoxicity: on the % scale 0 is the no-effect control and ±100 the full control effect
# How it was run: as §2
# CAOV3 = test: as above; details: Gynecologic cancer cell panel viability, ATPlite luminescence, 48 h; series mostly up to 57.5 µM
# How it was run: as §2
# CASKI = test: as above; details: Gynecologic cancer cell panel viability, ATPlite luminescence, 48 h; activity change, negative = cytotoxicity: at 57.5 µM (top of the series)
# How it was run: as §2
# Tov-21-G = test: as above; details: Gynecologic cancer cell panel viability, ATPlite luminescence, 48 h; activity change, negative = cytotoxicity: at 57.5 µM (top of the series)
# How it was run: as §2
# Tov112D = test: as above; details: Gynecologic cancer cell panel viability, ATPlite luminescence, 48 h; activity change, negative = cytotoxicity: at 57.5 µM (top of the series)
# How it was run: as §2
# Es-2 = test: as above; details: Gynecologic cancer cell panel viability, ATPlite luminescence, 48 h; series mostly up to 57.5 µM
# How it was run: as §2
# JEG-3 = test: as above; details: Gynecologic cancer cell panel viability, ATPlite luminescence, 48 h; series mostly up to 57.5 µM
# How it was run: as §2
# PA-1 = test: as above; details: Gynecologic cancer cell panel viability, ATPlite luminescence, 48 h; series mostly up to 57.5 µM
# How it was run: as §2
# Potency means the concentration at half of the fitted maximal effect; tags describe the fitted curve by direction and shape.
structure (smiles),measurement,setting,value
CCN1CCC[C@@H]1CNC(=O)c1ccc2c(c1)NC(=O)c1cccc(C)c1S2,Potency,[1],"inconclusive: 29 µM [inhibitor, single point]"
same,Potency,[2],"inconclusive: 20.5 µM [inhibitor, single point]"
same,max response,CRL-7250,inactive: 2.08%
same,Potency,HEK293,"inconclusive: 29.1 µM [inhibitor, single point]"
same,Potency,HaCat,"inconclusive: 1.64 µM [inhibitor, partial curve, poor fit]"
O=C(O)c1cccc(C(=O)CCC2OC(n3cnc4c(=O)[nH]cnc43)C(O)C2O)c1 (stereo unspecified),Potency,[1],inactive
same,Potency,[3],"inconclusive: 4.62 µM [inhibitor, partial curve, poor fit]"
same,outcome,CRL-7250,inactive
same,max response,HEK293,inactive: -2.52%
same,outcome,HaCat,inactive
same,Potency,Hek293T,inactive
same,Potency,OV90,inactive
same,Potency,SKOV3,inactive
C#C[C@]1(O)CC[C@H]2[C@@H]3CCC4=Cc5oncc5C[C@]4(C)[C@H]3CC[C@@]21C,Potency,[4],active: 4.61 µM
same,Potency,[1],"inconclusive: 23.7 µM [inhibitor, partial curve]"
same,Potency,[2],"inconclusive: 33.5 µM [inhibitor, partial curve, poor fit]"
same,Potency,CRL-7250,"inconclusive: 26.6 µM [inhibitor, single point]"
same,Potency,HEK293,active: 21.1 µM
same,Potency,HaCat,"inconclusive: 23.7 µM [inhibitor, single point]"
same,Potency,Hek293T,"inconclusive: 15.8 µM [cytotoxic, single point]"
same,Potency,SKOV3,"inconclusive: 0.316 µM [rising, full curve, poor fit]"
C=CC(=O)Nc1ccc2ncnc(Nc3ccc(OCc4cccc(F)c4)c(Cl)c3)c2c1,Potency,[4],active: 23.5 µM and active: 16.4 µM
same,Potency,[1],active: 7.28 µM and active: 5.9 µM
same,Potency,CRL-7250,"inconclusive: 3.32 µM [inhibitor, full curve] and active: 14.6 µM"
same,Potency,HEK293,"inconclusive: 29.1 µM [inhibitor, single point]"
same,Potency,KB-3-1,"inconclusive: 23.1 µM [inhibitor, single point]"
same,Potency,NIH3T3,"inconclusive: 10.5 µM [inhibitor, full curve] and inconclusive: 11.6 µM [inhibitor, partial curve]"
same,Potency,C33A,"inconclusive: 25.1 µM [cytotoxic, partial curve, poor fit]"
same,Potency,CAOV3,active: 35.5 µM
same,Potency,CASKI,active: 14.1 µM
same,Potency,Hek293T,"inconclusive: 25.1 µM [cytotoxic, single point]"
same,Potency,SKOV3,inactive
same,Potency,Tov-21-G,active: 10 µM
same,Potency,Tov112D,"inconclusive: 28.2 µM [cytotoxic, single point]"
CCCCn1ccc(N2CCC(c3ccccc3)CC2)c(Cl)c1=O,Potency,[4],"inconclusive: 13 µM [inhibitor, partial curve]"
same,Potency,CRL-7250,"inconclusive: 23.1 µM [inhibitor, single point]"
same,Potency,HEK293,"inconclusive: 29.1 µM [inhibitor, single point]"
same,Potency,KB-3-1,"inconclusive: 16.4 µM [inhibitor, partial curve, poor fit]"
same,Potency,NIH3T3,"inconclusive: 20.6 µM [inhibitor, single point]"
same,Potency,C33A,"inconclusive: 35.5 µM [cytotoxic, single point]"
same,Potency,CAOV3,"inconclusive: 39.8 µM [cytotoxic, single point]"
same,Potency,CASKI,"inconclusive: 28.2 µM [cytotoxic, single point]"
same,Potency,Es-2,active: 28.2 µM
same,Potency,Hek293T,active: 31.6 µM
same,Potency,JEG-3,"inconclusive: 31.6 µM [cytotoxic, single point]"
same,Potency,OV90,"inconclusive: 25.1 µM [cytotoxic, single point]"
same,Potency,PA-1,active: 25.1 µM
same,Potency,SKOV3,"inconclusive: 17.8 µM [cytotoxic, single point]"
same,Potency,Tov-21-G,active: 28.2 µM
same,Potency,Tov112D,"inconclusive: 28.2 µM [cytotoxic, single point]"
O=C1NCCN1CCN1CCC(c2cn(-c3ccc(F)cc3)c3ccc(Cl)cc23)CC1,Potency,[4],active: 18.4 µM and active: 20.6 µM
same,Potency,CRL-7250,"inconclusive: 26.6 µM [inhibitor, single point]"
same,Potency,HEK293,active: 6.68 µM
same,Potency,KB-3-1,"inconclusive: 18.4 µM [inhibitor, single point] and inconclusive: 29.1 µM [inhibitor, single point]"
same,Potency,NIH3T3,"inconclusive: 33.5 µM [inhibitor, single point]"
same,Potency,C33A,active: 20 µM
same,Potency,CAOV3,"inconclusive: 39.8 µM [cytotoxic, single point]"
same,Potency,CASKI,active: 35.5 µM
same,Potency,Es-2,"inconclusive: 39.8 µM [cytotoxic, single point]"
same,Potency,Hek293T,active: 31.6 µM
same,Potency,JEG-3,"inconclusive: 39.8 µM [cytotoxic, single point]"
same,Potency,OV90,"inconclusive: 31.6 µM [cytotoxic, partial curve, poor fit]"
same,Potency,PA-1,"inconclusive: 39.8 µM [cytotoxic, single point]"
same,Potency,SKOV3,active: 28.2 µM
same,Potency,Tov-21-G,"inconclusive: 39.8 µM [cytotoxic, single point]"
same,Potency,Tov112D,"inconclusive: 39.8 µM [cytotoxic, single point]"

# — PubChem BioAssay (NCATS)
